Reference: PubChem BioAssay (NCI)
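How tested: cells in 96-well plates exposed to compound for 48 hours at five concentrations. GI50 = concentration required for 50% inhibition of growth. TGI is the concentration that stops growth completely.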

Tested on: NCI-H322M lung
Experiment: NCI-60 cell line screen, 48 h

Compound | GI50 | TGI
C=CC(=O)Nc1ccc(C(=O)/C=C/c2ccc(N(C)CCF)cc2)c(O)c1 | 4.27 µM | 17.5 µM
N#Cc1c(-c2ccc(F)cc2)nc(SCc2ccccc2)nc1N1CCNCC1 | 14.3 µM | 27.9 µM
COc1cc2oc(-c3cccc(C(=O)Nc4cccc([N+](=O)[O-])c4)c3)cc(=O)c2c(OC)c1OC | 6.46 µM | > 100 µM
CC(=O)Nc1ccc(-c2cn(-c3cccc(C(=O)Nc4ccc(F)c(C(F)(F)F)c4)c3)nn2)cn1 | 17.3 µM | 34.3 µM
CC[C@@]1(O)C(=O)OCc2c1cc1n(c2=O)Cc2c-1nc1cc(F)c(C)c3c1c2[C@@H](N)CC3 | < 0.01 µM | 1.35 µM
COc1ccc(N(C)c2cc(C#N)nc3ccccc23)cc1N | < 0.01 µM | > 100 µM
O=C(CCl)Nc1ccc(C(=O)/C=C/c2cc3ccccc3nc2Cl)cc1 | 2.7 µM | 8.14 µM
